# Screen size: about 420,000 compounds; about 64,000 (15%) were called active. Inconclusive results, whose numbers are uncertain, are shown with a selection of clear calls. Calls come from the whole dose curve; as a rule, active = well fitted inhibition curve with a large enough effect; inconclusive = small, poorly fitted or top-dose-only effect; inactive = flat fitted curve, though single readings scatter. No potency is given beside an inconclusive call; the fits are too rough.
# Assay: qHTS for Inhibitors of human tyrosyl-DNA phosphodiesterase 1 (TDP1): qHTS in cells in absence of CPT; note: nearly all actives have a fitted effect of over 55% in size
# Settings: DT40 Tdp1-/- hTDP1 cells, no CPT, ATP luminescence, 48 h; activity change, negative = growth inhibition: at 46.2 µM (top of the series) unless noted
# Procedure, shortened: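 Chicken DT40 Tdp1-/- cells complemented with human TDP1, screened without camptothecin (DMSO vehicle only), 400 cells/well. Compounds pin-transferred, cells incubated at 37 °C for at least 48 hr. Growth read as ATP-dependent luminescence (CellTiter-Glo, 30 min at RT).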
# % is set by controls: 0 for no effect and ±100 for the full control effect; potency is the fitted concentration of half-maximal effect; tags give direction and shape of the fitted curve.
Structure (SMILES),Potency,"activity change, negative = growth inhibition"
CC12CCC(C(=O)N(CCC#N)CCC#N)(CC1=O)C2(C)C (stereo not given),inactive,
O=C1S/C(=C\c2ccc(N3CCOCC3)o2)C(=O)N1Cc1ccc(F)cc1,"inconclusive [inhibitor, partial curve]",
CCCCC(=O)NS(=O)(=O)c1ccc(N=NN(CC)CC)cc1,inactive,
Cc1ccc(C)c(S(=O)(=O)N2CCCC2CNC(=O)C(=O)NCc2ccccc2C)c1 (stereo not given),"inconclusive [inhibitor, single point]",
CCN(CC)C(=O)Cn1cc(C(=O)C(=O)NCCc2ccc(S(N)(=O)=O)cc2)c2ccccc21,"inconclusive [inhibitor, single point]",
CC(=O)Nc1ccc(NC(=O)C2CC(=O)Nc3ncnn32)cc1 (stereo not given),inactive,
Cc1ccc(S(=O)(=O)Nc2cc3c(cc2NCc2ccccc2)n(C)c(=O)n3C)cc1,active: 16.4 µM,
CCOc1ccc2oc(C(=O)OCC(=O)NC(=O)NC)c(C)c2c1,inactive,
COC(=O)c1sccc1NC(=O)C1CC=CCC1C(=O)O (stereo not given),"inconclusive [inhibitor, single point]",
O=C(CCCN1C(=O)/C(=C\c2cccc(Br)c2)SC1=S)Nc1ccc(C(=O)O)cc1,inactive,
Cc1ccccc1C(=O)N1c2ccccc2OCC1C(C)(C)C (stereo not given),active: 20.6 µM,
CC(C)Cc1ccc(CN2CCCC(NC(=O)CCCN3CCCC3=O)C2)cc1 (stereo not given),active: 20.6 µM,
COc1ccc2ccccc2c1CNCc1ccccn1,inactive,
CCc1nnc(SCC(=O)Nc2ccc(N3CCOCC3)cc2)o1,"inconclusive [inhibitor, single point]",
c1ccc(COc2cccc(-c3cc4nc(NCc5ccc6c(c5)OCO6)ccn4n3)c2)cc1,"inconclusive [inhibitor, single point]",
CC(=O)N1CCN(C(=O)c2[nH]c(C(F)(F)F)nc2-c2ccccc2)CC1,inactive,
NS(=O)(=O)c1ccc(CCNC(=O)c2cc3ccccc3oc2=O)cc1,inactive,
CCOC(=O)c1sc2ccccc2c1S(=O)(=O)N1CCN(c2cccc(C)c2)C(C)C1 (stereo not given),"inconclusive [inhibitor, single point]",
COc1ccc(NC(=O)c2ccc(NCCCN3CCOCC3)c([N+](=O)[O-])c2)cc1,active: 18.4 µM,
COc1cc2c(cc1O)[C@@H]1Cc3cc(OC)c(OC)cc3C(C2)N1C,"inconclusive [inhibitor, partial curve]",
CCOC(=O)COc1c(C=O)cc(Br)cc1OC,"inconclusive [inhibitor, single point]",
O=C(Nc1nc(-c2cccs2)cs1)C1=COCCO1,active: 23.1 µM,
COc1ccc2[nH]cc(CCNC(=O)Cn3cc(C)c(=O)[nH]c3=O)c2c1,inactive,
CCOC(=O)N1CCN(C(=O)CSCC(=O)N=c2sc3ccccc3n2C)CC1,"inconclusive [inhibitor, partial curve]",
CCOc1ccc(C(=O)Nc2nncs2)cc1OCC,inactive,

Structure (SMILES),Potency,"activity change, negative = growth inhibition"
COc1ccccc1-c1cnc(C(O)c2ccc(Cl)c(F)c2)[nH]1 (stereo not given),"inconclusive [inhibitor, partial curve]",
Cc1c(C(=O)OCC(=O)c2ccc3c(c2)OCCO3)oc2ccccc12,"inconclusive [inhibitor, single point]",
COc1ccc(CCNC(=O)c2cnn(-c3cccc(C)c3)c2C2CCN(C(=O)OC(C)(C)C)CC2)cc1OC,active: 14.6 µM,
Cc1cc(C(O)c2ncc(-c3cccc4ccccc34)[nH]2)ccc1F (stereo not given),"inconclusive [inhibitor, single point]",
CCN(C(=O)c1ccc2c(=O)n3c(nc2c1)CCCCC3)c1ccccc1C,"inconclusive [inhibitor, single point]",
C=Cc1ccc(Cn2c(=O)n(CCCOC)c(=O)c3sccc32)cc1,"inconclusive [inhibitor, single point]",
COc1ccc(Cl)cc1NC(=O)CSc1nc2[nH]ncc2c(=O)[nH]1,"inconclusive [inhibitor, single point]",
O=S(=O)(NCC1(N2CCOCC2)CCCCC1)c1ccccc1Cl,"inconclusive [inhibitor, single point]",
CC(C)n1nc(C(=O)OCC(=O)N2CC(=O)Nc3ccccc32)c2ccccc2c1=O,inactive,
CCOC(=O)C(NCCCCl)c1ccccc1 (stereo not given),inactive,
CCCCc1ccc(NC(=O)CC(C)(C)C)cc1,"inconclusive [inhibitor, single point]",
N#Cc1ncn(C2OC(CO)C(O)C2O)c1N (stereo not given),active: 5.8 µM,
Cc1cccc(NC(=O)CNC(=O)CCc2nc3sc4c(c3c(=O)[nH]2)CCCC4)c1C,"inconclusive [inhibitor, single point]",
CCc1ccccc1NC(=S)N1CCNC(=O)C1CC(=O)OC (stereo not given),"inconclusive [inhibitor, single point]",
COc1cccc(-c2cc3nc4c(c(NCC(C)(C)CN(C)C)n3n2)CCCC4)c1,"inconclusive [inhibitor, single point]",
CC(C)COc1ccc(C(=O)N2CCCCC2CCN2CCCCC2)cc1 (stereo not given),"inconclusive [inhibitor, single point]",
CCCCn1c(N)c(N(CC(C)C)C(=O)C2CCCN(C(=O)c3ccc(Cl)cc3)C2)c(=O)[nH]c1=O (stereo not given),inactive,
Cc1cccc(-c2nnn3c2nc(NCc2ccc4c(c2)OCO4)c2ccccc23)c1,"inconclusive [inhibitor, single point]",
COc1ccc(/C=C/C(=O)NC(=S)NNC(=O)c2c(-c3ccccc3)noc2C)cc1,active: 25.9 µM,
Oc1ccc(Nc2nc(NCC3CCCO3)c3ccccc3n2)cc1 (stereo not given),active: 16.4 µM,
COCC(=O)N1CCC(Oc2ccc(C(=O)N3CCCCCC3)cc2)CC1,inactive,
Cc1cc(NC(=O)Nc2cccc(Cl)c2)n(-c2ccccc2)n1,,inconclusive: -36.6% [inhibitor]
O=C(Oc1ccccc1)N1CCC2(CCCN(c3ccccn3)C2)CC1,"inconclusive [inhibitor, single point]",
CN(Cc1c(C(=O)N/N=C/c2ccccc2O)nnn1-c1nonc1N)C1CCCCC1,active: 6.51 µM,
O=C(NC(=S)Nc1cccnc1)c1cccc(Br)c1,inactive,

Structure (SMILES),Potency,"activity change, negative = growth inhibition"
CCCOc1ccc(CSC(=N)N)cc1C(=O)OC,"inconclusive [inhibitor, single point]",
CC(C)NC(=O)NCCCCCCS(C)=O (stereo not given),inactive,
O=C(c1ccc2c(c1)OCO2)N1CCN(c2ccc(Cl)cc2)CC1,"inconclusive [inhibitor, single point]",
CN(C)S(=O)(=O)c1cccc(C(=O)Nc2ccc3c(c2)CCC3)c1,active: 18.4 µM,
Cc1ccc(Cc2cc(-c3ccc(C)cc3)n[nH]c2=O)cc1,"inconclusive [inhibitor, single point]",
CC1CC(C)CN(CCCNC(=O)c2ccc3nc(N4CCOCC4)sc3c2)C1 (stereo not given),"inconclusive [inhibitor, single point]",
O=C1CCC(C(=O)N2CCC(CO)CC2)CN1Cc1ccc(Cl)cc1 (stereo not given),inactive,
Cc1c(Cl)cccc1-n1c(SCC(=O)N2CCC(C(=O)O)CC2)nc2ccccc2c1=O,inactive,
COC(=O)c1[nH]c2ccc(Br)cc2c1NC(=O)Oc1ccccc1,inactive,
CCSC1=NC(=O)/C(=C2/C=Cc3ccccc3N2CC)S1,"inconclusive [inhibitor, partial curve, poor fit]",
CC12CCC(=O)N1C(C(=O)Nc1ccc(F)c(F)c1F)CS2 (stereo not given),inactive,
OC(COc1ccc2ccccc2c1Cl)CN1CCOCC1 (stereo not given),"inconclusive [inhibitor, single point]",
CCOc1ccc(S(=O)(=O)NCc2ccco2)c2ccccc12,"inconclusive [inhibitor, single point]",
CCN1C(=O)[C@H]2[C@@H](c3ccc(-c4cccc(Cl)c4)cc3)N[C@@](CC(C)C)(C(=O)OC)[C@H]2C1=O,active: 11.6 µM,
Cc1nc(C)c(NC(=O)N2CCc3ccccc32)cc1NC(=O)N1CCc2ccccc21,"inconclusive [inhibitor, single point]",
N#CC1(NC(=O)COc2cc(F)ccc2[N+](=O)[O-])CCCCC1,"inconclusive [inhibitor, partial curve]",
COc1ccc(N2CC(C(=O)N/N=C/c3cc([N+](=O)[O-])ccc3O)CC2=O)cc1 (stereo not given),"inconclusive [inhibitor, single point]",
CCOC(=O)[C@]12CCC=C1N(CCC1=CCCCC1)C(=O)[C@H](CC(=O)N1CCN(C(=O)c3ccco3)CC1)C2,"inconclusive [inhibitor, single point]",
CCCCOc1cccc(C(=O)Nc2cc(NC(=O)c3ccco3)ccc2OC)c1,active: 20.6 µM,
COc1ccc(/C=[N+](\[O-])C2N(c3ccccc3)C(=S)SC2(C)C)cc1OC (stereo not given),"inconclusive [inhibitor, single point]",
COc1ccc2nc(NC(=O)c3ccccc3[N+](=O)[O-])sc2c1,inactive,
CCc1ccc(CN2CCc3nc(N4CCN(c5ccccc5F)CC4)ncc3C2)cc1,active: 18.4 µM,
CCc1cc(C(=O)Nc2sc(C)c(CC)c2C#N)no1,inactive,
CCCN(CCC)CCCNC(=O)c1cc2cc3ccc(OC)cc3nc2o1,inactive,
COc1ccc(/C=N/NC(=O)Cc2ccc(Cl)cc2)cc1OC,inactive,
